Experimental findings from article PMC9911399, “Two distinct binding modes provide the RNA-binding protein RbFox with extraordinary sequence specificity” are described below.

Where a chain is given by its changes, count along the chain named. The list shows a part of the results.

First the molecules themselves.
T1: RBFOX1 RRM RbFoxmut (Fox-RRM*) (Homo sapiens, UniProt Q9NWB1 109-208, R118D;E147R;N151S;E152T)
T1 sequence: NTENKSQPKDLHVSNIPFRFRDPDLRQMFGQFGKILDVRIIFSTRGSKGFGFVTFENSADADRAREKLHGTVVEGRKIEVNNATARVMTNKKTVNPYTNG

B1: AAUGCAA (DNA:RNA)
RNA: GGGAGACCGGAAUUCAGAUUGUCCAAUGCAAUUAAAUCCCGUCGUAGCCACCA
DNA 1: CAATCTGAATTCCGGTCTCCC
DNA 2: TGGTGGCTACGACGGGATT
B2: CUUCUAA (DNA:RNA)
RNA: B1 RNA with A25C, A26U, G28C, C29U
DNA 1: CAATCTGAATTCCGGTCTCCC
DNA 2: TGGTGGCTACGACGGGATT
B3: GGCGAUU (DNA:RNA)
RNA: B1 RNA with A25G, A26G, U27C, C29A, A30U, A31U
DNA 1: CAATCTGAATTCCGGTCTCCC
DNA 2: TGGTGGCTACGACGGGATT
B4: UAGAAAA (DNA:RNA)
RNA: B1 RNA with A25U, U27G, G28A, C29A
DNA 1: CAATCTGAATTCCGGTCTCCC
DNA 2: TGGTGGCTACGACGGGATT
B5: CGACGAU (DNA:RNA)
RNA: B1 RNA with A25C, A26G, U27A, G28C, C29G, A31U
DNA 1: CAATCTGAATTCCGGTCTCCC
DNA 2: TGGTGGCTACGACGGGATT
B6: CAAAACA (DNA:RNA)
RNA: B1 RNA with A25C, U27A, G28A, C29A, A30C
DNA 1: CAATCTGAATTCCGGTCTCCC
DNA 2: TGGTGGCTACGACGGGATT
B7: CGGGUAU (DNA:RNA)
RNA: B1 RNA with A25C, A26G, U27G, C29U, A31U
DNA 1: CAATCTGAATTCCGGTCTCCC
DNA 2: TGGTGGCTACGACGGGATT
B8: AACGCAA (DNA:RNA)
RNA: B1 RNA with U27C
DNA 1: CAATCTGAATTCCGGTCTCCC
DNA 2: TGGTGGCTACGACGGGATT
B9: CAGCGAA (DNA:RNA)
RNA: B1 RNA with A25C, U27G, G28C, C29G
DNA 1: CAATCTGAATTCCGGTCTCCC
DNA 2: TGGTGGCTACGACGGGATT
B10: UGCCCAG (DNA:RNA)
RNA: B1 RNA with A25U, A26G, U27C, G28C, A31G
DNA 1: CAATCTGAATTCCGGTCTCCC
DNA 2: TGGTGGCTACGACGGGATT
B11: CCGAAUG (DNA:RNA)
RNA: GGGAGACCGGAAUUCAGAUUGUCCCCGAAUGUUAAAUCCCGUCGUAGCCACCA
DNA 1: CAATCTGAATTCCGGTCTCCC
DNA 2: TGGTGGCTACGACGGGATT
B12: GUCCUCC (DNA:RNA)
RNA: GGGAGACCGGAAUUCAGAUUGUCCGUCCUCCUUAAAUCCCGUCGUAGCCACCA
DNA 1: CAATCTGAATTCCGGTCTCCC
DNA 2: TGGTGGCTACGACGGGATT
B13: AGUCCAA (DNA:RNA)
RNA: B1 RNA with A26G, G28C
DNA 1: CAATCTGAATTCCGGTCTCCC
DNA 2: TGGTGGCTACGACGGGATT
B14: UGUGCAG (DNA:RNA)
RNA: B1 RNA with A25U, A26G, A31G
DNA 1: CAATCTGAATTCCGGTCTCCC
DNA 2: TGGTGGCTACGACGGGATT
B15: CCAGCGU (DNA:RNA)
RNA: B1 RNA with A25C, A26C, U27A, A30G, A31U
DNA 1: CAATCTGAATTCCGGTCTCCC
DNA 2: TGGTGGCTACGACGGGATT
B16: UUUUACG (DNA:RNA)
RNA: B11 RNA with C25U, C26U, G27U, A28U, U30C
DNA 1: CAATCTGAATTCCGGTCTCCC
DNA 2: TGGTGGCTACGACGGGATT
B17: ACGGGGC (DNA:RNA)
RNA: B1 RNA with A26C, U27G, C29G, A30G, A31C
DNA 1: CAATCTGAATTCCGGTCTCCC
DNA 2: TGGTGGCTACGACGGGATT
B18: UUGAAGC (DNA:RNA)
RNA: B11 RNA with C25U, C26U, U30G, G31C
DNA 1: CAATCTGAATTCCGGTCTCCC
DNA 2: TGGTGGCTACGACGGGATT
B19: ACUCUUC (DNA:RNA)
RNA: B12 RNA with G25A, U26C, C27U, C30U
DNA 1: CAATCTGAATTCCGGTCTCCC
DNA 2: TGGTGGCTACGACGGGATT
B20: CACGCUC (DNA:RNA)
RNA: B1 RNA with A25C, U27C, A30U, A31C
DNA 1: CAATCTGAATTCCGGTCTCCC
DNA 2: TGGTGGCTACGACGGGATT
B21: CUGCGAA (DNA:RNA)
RNA: B1 RNA with A25C, A26U, U27G, G28C, C29G
DNA 1: CAATCTGAATTCCGGTCTCCC
DNA 2: TGGTGGCTACGACGGGATT
B22: CUGUAAA (DNA:RNA)
RNA: B11 RNA with C26U, A28U, U30A, G31A
DNA 1: CAATCTGAATTCCGGTCTCCC
DNA 2: TGGTGGCTACGACGGGATT
B23: UACGGGC (DNA:RNA)
RNA: B1 RNA with A25U, U27C, C29G, A30G, A31C
DNA 1: CAATCTGAATTCCGGTCTCCC
DNA 2: TGGTGGCTACGACGGGATT
B24: CCUCCCC (DNA:RNA)
RNA: B12 RNA with G25C, U26C, C27U, U29C
DNA 1: CAATCTGAATTCCGGTCTCCC
DNA 2: TGGTGGCTACGACGGGATT
B25: UGCAUUA (DNA:RNA)
RNA: B11 RNA with C25U, C26G, G27C, A29U, G31A
DNA 1: CAATCTGAATTCCGGTCTCCC
DNA 2: TGGTGGCTACGACGGGATT
B26: GAUUCUU (DNA:RNA)
RNA: B1 RNA with A25G, G28U, A30U, A31U
DNA 1: CAATCTGAATTCCGGTCTCCC
DNA 2: TGGTGGCTACGACGGGATT
B27: UAAGUCU (DNA:RNA)
RNA: B1 RNA with A25U, U27A, C29U, A30C, A31U
DNA 1: CAATCTGAATTCCGGTCTCCC
DNA 2: TGGTGGCTACGACGGGATT
B28: AUCACUU (DNA:RNA)
RNA: B1 RNA with A26U, U27C, G28A, A30U, A31U
DNA 1: CAATCTGAATTCCGGTCTCCC
DNA 2: TGGTGGCTACGACGGGATT
B29: CUCAGCG (DNA:RNA)
RNA: B11 RNA with C26U, G27C, A29G, U30C
DNA 1: CAATCTGAATTCCGGTCTCCC
DNA 2: TGGTGGCTACGACGGGATT
B30: GAAAACC (DNA:RNA)
RNA: B12 RNA with U26A, C27A, C28A, U29A
DNA 1: CAATCTGAATTCCGGTCTCCC
DNA 2: TGGTGGCTACGACGGGATT
B31: CGCACCG (DNA:RNA)
RNA: B11 RNA with C26G, G27C, A29C, U30C
DNA 1: CAATCTGAATTCCGGTCTCCC
DNA 2: TGGTGGCTACGACGGGATT

The target in the assay is T1, RBFOX1 RRM RbFoxmut (Fox-RRM*). Kind of assay: EMSA; HiTS-Eq, 1 nM pool, 10 min; buffer printed only for the single-RNA assays: 10 mM Tris pH 7.5, 150 mM NaCl, 3.4 mM EDTA, 0.001% NP-40, 30 C. The note with it: tags: His6 N-terminal (pET28a); label: 5' 32P. In outline:
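Relative association constants, normalised to the cognate motif, were derived by comparing read counts of each RNA species with those of the control reaction. The RNA sequenced was the free fraction, separated by 8% native PAGE after a 10 min equilibration in 50 µL of 1 nM 5′-radiolabelled RNA (7 randomized nucleotides) with increasing concentrations of purified wild-type or mutant RbFox RRM.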
For B1, the binding signal is 0.0626 KA relative to UGCAUGU.

Turning to B2, the binding signal is 0.124 KA relative to UGCAUGU.

As for B3, the binding signal is 0.0737 KA relative to UGCAUGU.

As for B4, the binding signal was 0.0641 KA relative to UGCAUGU.

B5: the binding signal was 0.0442 KA relative to UGCAUGU.

As to B6, the binding signal was 0.0787 KA relative to UGCAUGU.

On to B7, for which the binding signal is 0.119 KA relative to UGCAUGU.

With B8, the binding signal is 0.0788 KA relative to UGCAUGU.

Turning to B9, the binding signal was 0.122 KA relative to UGCAUGU.

In the case of B10, the binding signal is 0.0903 KA relative to UGCAUGU.

With B11, the binding signal is 1.39 KA relative to UGCAUGU.

On to B12, for which the binding signal is 0.0486 KA relative to UGCAUGU.

For the molecule B13, the binding signal is 0.0892 KA relative to UGCAUGU.

For B14, the binding signal is 0.0989 KA relative to UGCAUGU.

As for B15, the binding signal was 0.127 KA relative to UGCAUGU.

With B16, the binding signal is 0.132 KA relative to UGCAUGU.

Consider B17, for which the binding signal is 0.104 KA relative to UGCAUGU.

For B18, the binding signal was 0.0981 KA relative to UGCAUGU.

As to B19, the binding signal is 0.0627 KA relative to UGCAUGU.

Turning to B20, the binding signal is 0.0532 KA relative to UGCAUGU.

B21: the binding signal is 0.166 KA relative to UGCAUGU.

Turning to B22, the binding signal is 0.0859 KA relative to UGCAUGU.

With B23, the binding signal was 0.0613 KA relative to UGCAUGU.

Turning to B24, the binding signal is 0.057 KA relative to UGCAUGU.

B25: the binding signal was 0.163 KA relative to UGCAUGU.

With B26, the binding signal is 0.0806 KA relative to UGCAUGU.

Regarding B27, the binding signal is 0.0462 KA relative to UGCAUGU.

Consider B28, for which the binding signal is 0.0896 KA relative to UGCAUGU.

As for B29, the binding signal is 0.113 KA relative to UGCAUGU.

On to B30, for which the binding signal is 0.0367 KA relative to UGCAUGU.

Consider B31, for which the binding signal is 0.17 KA relative to UGCAUGU.
